Reference: paper PMC6919601, “Identification of Plasmodium dipeptidyl aminopeptidase allosteric inhibitors by high throughput screening” (PLoS ONE, 2019)
Among all 110,000 compounds or so, about 230 (0.21%) showed an effect of 50% or more. This is one part of the list.

Each compound was assayed against DPAP1 (Plasmodium falciparum, UniProt Q8IIJ9) (assay: primary screen, percent inhibition; read by cleavage of a fluorogenic dipeptide substrate; higher = more effect of the substance).
Parameters: species or system P. falciparum D10 trophozoite lysates; single well
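Also: 30 min substrate incubation versus DMSO and 10 µM JCP410 controls.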

DPAP1, sequence (Q8IIJ9 whole entry, looked up): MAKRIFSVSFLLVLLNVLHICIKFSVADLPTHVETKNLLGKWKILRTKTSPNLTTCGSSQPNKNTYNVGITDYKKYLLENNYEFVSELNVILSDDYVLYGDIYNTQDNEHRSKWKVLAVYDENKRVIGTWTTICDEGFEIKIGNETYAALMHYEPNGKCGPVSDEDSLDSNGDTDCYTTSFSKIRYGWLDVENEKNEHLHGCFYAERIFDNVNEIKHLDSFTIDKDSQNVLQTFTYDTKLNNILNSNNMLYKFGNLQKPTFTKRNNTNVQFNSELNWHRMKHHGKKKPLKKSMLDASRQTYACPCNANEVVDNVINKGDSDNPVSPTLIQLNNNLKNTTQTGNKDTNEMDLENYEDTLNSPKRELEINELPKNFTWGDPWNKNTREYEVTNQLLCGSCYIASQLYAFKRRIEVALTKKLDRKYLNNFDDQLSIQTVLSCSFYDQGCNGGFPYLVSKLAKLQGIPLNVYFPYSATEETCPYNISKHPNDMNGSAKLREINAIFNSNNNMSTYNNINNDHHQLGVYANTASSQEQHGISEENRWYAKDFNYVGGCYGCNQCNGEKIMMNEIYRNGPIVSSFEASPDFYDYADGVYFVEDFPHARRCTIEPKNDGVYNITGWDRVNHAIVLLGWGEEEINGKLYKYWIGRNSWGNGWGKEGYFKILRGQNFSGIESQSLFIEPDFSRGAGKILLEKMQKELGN

SMILES | % Inhibition @ 10 uM
CN1C(C(=O)N2CCC(C(N)=O)CC2)=CC(c2cccs2)=NS1(=O)=O | 2.32%
O=C(NCc1ccccc1)c1cccc2c1-c1ccccc1C2=O | 1.27%
CCOc1cccc(OCC)c2c(C)nc(C)c1-2 | -1.57%
COc1ccc(C2(CNC(=O)Cc3ccc(OC)c(OC)c3)CCCC2)cc1 | -0.865%
COc1ccc(CNC(=O)c2ccc(CS(=O)Cc3ccc(Cl)cc3)o2)cc1 (stereo not drawn) | -3.61%
Cc1ccc(NC(=O)c2ccc(Br)cc2)c([N+](=O)[O-])c1 | 2.46%
Cc1nn(CCCC(=O)N2CCN(Cc3ccccc3)CC2)c(=O)c2c1sc1ccccc12 | -4.09%
C/C(=C1/SC(N2CCCC2)=NC1=O)c1ccc(Br)cc1 | 1.88%
COc1ccc(N(C(C)C(=O)Nc2cccc(C)c2)S(C)(=O)=O)cc1 (stereo not drawn) | 3.53%
CC(SCc1nc2ccccc2[nH]1)c1ccccc1 (stereo not drawn) | -0.0235%
Cc1cnn(-c2nc(-c3ccccc3)cc(-c3ccccc3)n2)c1 | 5.73%
CCCN(CCO)C1CCCC(C)C1 (stereo not drawn) | -0.603%
COc1cc(C)c(CNCCc2cccc(F)c2)cc1C | 15.4%
CS(=O)(=O)N(CC(=O)N1CCCCCC1)c1cccc(F)c1 | 2.54%
Cc1cc(O)nc2c(C)c(Cl)ccc12 | -1.96%
CCC(C)c1ccc(NC(=O)c2nn(C)cc2Br)cc1 (stereo not drawn) | -8.38%
CCOc1ccc(S(=O)(=O)Nc2cc(OC)c(Cl)cc2OC)cc1 | -2.83%
Cc1nc2ccccc2n1CCN1CCOCC1 | -2.35%
CC(C)(C)CNC(=O)C(=O)Nc1ccc(Cl)c(Cl)c1 | -0.414%
Fc1cccc(Cl)c1CN1CCc2c([nH]c3ccccc23)C1 | 6.54%
CC1(C)COC(CCCOc2ccc(Cl)cc2Cl)=N1 | -2.02%
O=C(CN1C(=O)S/C(=C/c2cccc(Cl)c2)C1=O)N1CCOCC1 | 1.35%
N=C1/C(=C/c2cccn2CCCOc2ccccc2)C(=O)N=C2SC=C(c3ccccc3)N12 | -3.51%
COCCNc1ncnc2c1cnn2Cc1ccc(Cl)cc1 | 3.21%
NC(=O)NC(c1ccccc1)c1ccccc1Br (stereo not drawn) | -1.5%
CCOc1ccccc1CNCc1c(C(=O)O)n(Cc2ccc(F)cc2)c2ccccc12 | -1.97%

SMILES | % Inhibition @ 10 uM
CCCN1C(=O)[C@@H]2[C@H](C1=O)[C@H](C(=O)c1ccc(Cl)cc1)N1C=Cc3ccccc3[C@@H]21 | 2.95%
CC(C)(C)c1cc(/C=N/O)c(C(C)(C)C)s1 | 3.25%
C=CCn1c(SCC)nc(O)cc1=O | -0.856%
CS(=O)(=O)N(CC(=O)Nc1cc(Cl)ccc1Oc1ccccc1)c1ccccc1 | -0.318%
Cc1c(C(=O)NCc2ccco2)oc2c1-c1nn(Cc3ccc(Cl)cc3)cc1CC2 | 8.36%
CC1CCCCN1c1nc2ccccc2n2nnnc12 (stereo not drawn) | -0.522%
COC(=O)c1cc(S(=O)(=O)NCCc2ccco2)cn1C | 0.224%
COc1ccc(C2CC(C(F)(F)F)n3ncc(C(=O)N(C)Cc4ccccc4)c3N2)cc1 (stereo not drawn) | -7.02%
N#C/C(=C\c1c(Oc2ccccc2)nc2ccccn2c1=O)C(=O)NC1CCS(=O)(=O)C1 (stereo not drawn) | 8.51%
CCC(C)OC(=O)C1=C(C)NC(=O)CC1c1ccccc1Br (stereo not drawn) | 13.2%
COC(=O)C1=CN(Cc2ccc(F)cc2)C=C(C(=O)OC)C1c1cccc(Oc2ccccc2)c1 | -1.48%
CCCCCC(=O)Nc1ccc(N2CCOCC2)c(Cl)c1 | -0.25%
CN(CCCn1cnc2c3ccccc3nc-2c1O)C1CCCCC1 | 3.24%
CCOC(=O)c1ccc2nc(C(F)(F)F)nc(N3CCc4ccccc4C3)c2c1 | -2.91%
OCCSc1c(O)nc2ccc(Cl)cc2c1-c1ccccc1 | 6.51%
COc1ccc(/C=C/C(=O)Nc2nc3ccc(S(C)(=O)=O)cc3s2)cc1Br | 3.39%
COc1ccc(C=O)cc1Cn1cccc1C1=NC(c2ccccc2)CO1 (stereo not drawn) | 0.163%
Cc1cc(NC(=O)c2ccc(NC(=O)C(C)Oc3ccccc3)cc2)no1 (stereo not drawn) | -5.6%
CC(C)OCCCNC(=O)CN1CCN(Cc2ccccc2Cl)C1=O | -0.148%
COc1ccc2c(C)c(CC(=O)NCc3ccc4c(c3)OCO4)c(=O)oc2c1OC | 4.13%
Cc1oc(C23CC4CC(CC(C4)C2)C3)cc1C(=O)NCc1ccccc1 | -1.24%
CCc1ccc(CNC(=O)C2CC(=O)N(C3CCCC3)C2)cc1 (stereo not drawn) | -1.21%
CCOc1ccccc1NC(=O)COc1ccc(C)cc1C | -6.05%
CC(=O)Nc1ccc(NC(=O)C2CCCC2)cc1 | 2.27%
Cn1c(SCc2ccccc2)nc2ccccc2c1=O | -9.7%
CCCNC1=N/C(=C\c2ccccc2)C(=O)N1c1ccc(C)cc1 | -1.22%

SMILES | % Inhibition @ 10 uM
CC1CCN(c2ccc([N+](=O)[O-])cn2)CC1 | -5.2%
O=c1c(CN2CCCC2CO)coc2ccc(Cl)cc12 (stereo not drawn) | -3.15%
CC1=CC(C)(C)NC(=S)N1c1cccc(C(=O)/C=C/c2ccc(Cl)cc2Cl)c1 | 2.22%
O=C(CN1C(=O)c2cccc3cccc1c23)NC1CC1 | 1.92%
O=C(NC1CCCCCC1)C1CCC(CNS(=O)(=O)c2ccccc2)CC1 (stereo not drawn) | -4.76%
Cc1cc(C)c(S(=O)(=O)NCC(=O)Nc2ccc(F)cc2)c(C)c1 | 1.94%
N#Cc1ccccc1Oc1nc(Cl)cn(-c2ccccc2)c1=O | 3.05%
N#C/C(=C\c1c(Oc2ccccc2Cl)nc2ccccn2c1=O)c1nc2ccccc2[nH]1 | -1.86%
O=C(O)/C=C/c1ccc2c(-c3ccccc3)onc2c1 | -7.35%
COc1ccc(OC)c(-c2cc(C(=O)N3N=C(C(F)F)CC3(O)C(F)F)c3ccccc3n2)c1 (stereo not drawn) | 3.72%
O=C(CCc1nc2ccccc2s1)c1ccc(F)cc1 | 2.57%
CN(C)/C=C/C=C1\CCc2ccccc2C1=O | 10.7%
CCOC(=O)/C(C#N)=C\c1c(C)c(C)cc(C)c1C | -2.51%
Cc1ccccc1C(=O)Nc1ccccc1C(C)C | -2.35%
COc1ccc2c(c1)CC/C(=C\c1cc(Br)cs1)C2=O | -0.503%
CCOc1ccc(C(C)NC(=O)CCC(=O)O)cc1 (stereo not drawn) | 20.2%
CCOC(=O)c1c(Cc2cccc(Cl)c2)c[nH]c1C | -5.4%
COc1ccccc1N(CC(=O)Nc1cc(C)ccc1C)S(=O)(=O)c1ccccc1 | -3.25%
O=C(C1CCC(CNS(=O)(=O)c2cccc3nsnc23)CC1)N1CCOCC1 (stereo not drawn) | 6.1%
Cc1ccc(Cn2c(CN3CCCCC3C)nc3c2c(=O)n(C)c(=O)n3C)cc1 (stereo not drawn) | 2.9%
Cn1c(=O)c2c(nc(N3CCOCC3)n2CCCNC2=NCCCCC2)n(C)c1=O | 1.57%
Cc1ccc(C2=NN(C(=O)CCC(=O)O)C(c3ccc(F)cc3)C2)cc1 (stereo not drawn) | -3.76%
COc1ccc(CCNC(=O)Cn2cnc3c(nnn3Cc3ccc(F)cc3)c2=O)cc1OC | 5.74%
COc1ccc(OC)c(CNc2cc(C)cc(C)c2)c1 | 0.219%
COC(=O)c1ccc(-c2nc(-c3ccc4c(c3)OCO4)no2)cc1 | 4.31%
CCOc1ccc(-n2c(SCC(N)=O)nc3sc4c(c3c2=O)CCCC4)cc1 | -1.84%

SMILES | % Inhibition @ 10 uM
Cc1cccc(OCC(=O)N2CCN(c3cccc(Cl)c3)CC2)c1C | -0.564%
OC1(C#CCN(C2CCCCC2)C2CCCCC2)CCCCC1 | -0.128%
COC(=O)CSc1nc2ccc(N)cc2s1 | 3.65%
CCC(C(=O)N1CCCC1)N1N=C(c2ccccc2)Oc2ccccc2C1=O (stereo not drawn) | -0.142%
CCOc1ccc(-c2nc(CSCC(=O)NCCc3ccc(C)cc3)c(C)o2)cc1 | -0.971%
O=C(CSc1ccccc1)Nc1ccc2c(c1)C(=O)N(C1CCCCC1)C2=O | 5.43%
Cc1nn(C)cc1CN(C)C(=O)c1nn2c(c1Cl)NC(c1cccs1)CC2C(F)(F)F (stereo not drawn) | -0.988%
O=S(=O)(c1ccc2ccccc2c1)N1CCN(c2ncnc3sc4c(c23)CCCC4)CC1 | 3.47%
CN(C)CCNC(=O)Cn1cnc2c(nc3n2CCCCC3)c1=O | 0.00353%
Fc1ccc(CN2CCN(c3ccccc3)CC2)cc1 | -0.0404%
O=C1CCC(c2ccccc2)N1C(=O)c1ccc(Cl)cc1 (stereo not drawn) | 3.85%
CCC1CCCCN1C(=O)c1sc2nc(-c3ccccc3)cn2c1C (stereo not drawn) | -3.7%
O=C(NCCN1CCOCC1)c1cc2c(s1)-c1ccccc1OC2 | 0.291%
CCN(CC)CCCNC(=O)CSc1nc2nc(C)c(Cc3ccccc3Cl)c(C)n2n1 | 0.813%
CCN(CC)Cc1c(O)ccc2occ(C(=O)c3cc(OC)ccc3OC)c12 | -7.75%
Cc1cccc(NC(=O)c2ccncc2)c1C | -3.65%
CCOC(=O)C1=C(C)NC(=O)NC1c1cccc(F)c1 (stereo not drawn) | 1.13%
c1ccc(CCN2CCC(NC3CCCCCCC3)CC2)cc1 | -1.15%
COc1ccc(-c2cc(C(=O)NC3CCCC3)no2)cc1 | -8.55%
CC(C)(C)NC(=O)c1nn2c(c1Cl)NC(c1ccccc1)CC2C(F)(F)F (stereo not drawn) | -0.996%
COc1ccc(C2CC(c3cccc(Br)c3)Nc3ncnn32)c(OC)c1OC (stereo not drawn) | 0.0842%
O=C1C=C(NCCc2ccccc2)CC(c2ccco2)C1 (stereo not drawn) | -2.87%
O=C(O)CCCN1C(=O)C(O)=C(C(=O)c2ccc(Br)cc2)C1c1ccc(F)cc1 (stereo not drawn) | 0.755%
Cc1ccc(-n2ncc(C(=O)NCCC(C)C)c2C2CCN(C(=O)OC(C)(C)C)CC2)cc1 | 6.36%
